Results: the supplement of paper PMC4604168 (melanoma cell lines)
The list shows a part of the results. Many values rest on one well or one pass, so single values are uncertain.
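Also: cells treated in 1,536-well plates, then fixed and DAPI-stained, with nuclei counted from automated high-throughput microscope images.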

Each molecule was assayed on A2058 (assay: cell count relative to DMSO control; melanoma cells; higher = more viable cells). Details: library dose: standard library concentration; 72 h.
In the case of CN1CCN(c2ccc3nc(-c4c(N)c5c(F)cccc5[nH]c4=O)[nH]c3c2)CC1 [Dovitinib] + NC(=O)Nc1cc(-c2cccc(F)c2)sc1C(=O)N[C@H]1CCCNC1 [AZD7762] (first compound 0.5 µM, partner dose 0.1 µM), the cell count is reported as 32.8%. Work on CN1CCN(c2ccc3nc(-c4c(N)c5c(F)cccc5[nH]c4=O)[nH]c3c2)CC1 [Dovitinib] + CNC(=O)c1cc(Oc2ccc(NC(=O)Nc3ccc(Cl)c(C(F)(F)F)c3)cc2)ccn1 [sorafenib] (first compound 0.5 µM, partner dose 2 µM) yielded a cell count of 28.4%. CNC(=O)c1cc(Oc2ccc(NC(=O)Nc3ccc(Cl)c(C(F)(F)F)c3)cc2)ccn1 [sorafenib] + C=CCn1c(=O)c2cnc(Nc3ccc(N4CCN(C)CC4)cc3)nc2n1-c1cccc(C(C)(C)O)n1 [MK1775] (first compound 2 µM, partner dose 0.1 µM) was tested, and the cell count was 94.5%. Work on C[C@@H](Oc1cc(-c2cnn(C3CCNCC3)c2)cnc1N)c1c(Cl)ccc(F)c1Cl [Crizotinib] + Cn1nnc2c(C(N)=O)ncn2c1=O [temozolomide] (first compound 1 µM, partner dose 10 µM) yielded a cell count of 49%. With CS(=O)(=O)CCNCc1ccc(-c2ccc3ncnc(Nc4ccc(OCc5cccc(F)c5)c(Cl)c4)c3c2)o1 [lapatinib] + C#Cc1cccc(Nc2ncnc3cc(OCCOC)c(OCCOC)cc23)c1 [erlotinib] (first compound 4 µM, partner dose 4 µM) the cell count was 90.2%. C[C@@H](Oc1cc(-c2cnn(C3CCNCC3)c2)cnc1N)c1c(Cl)ccc(F)c1Cl [Crizotinib] + OCCn1cc(-c2cnc3nnn(Cc4ccc5ncccc5c4)c3n2)cn1 [PF04217903] (first compound 1 µM, partner dose 5 µM) gave a cell count of 57%. For C=CCNC1=C2C[C@@H](C)C[C@H](OC)[C@H](O)[C@@H](C)/C=C(\C)[C@H](OC(N)=O)[C@@H](OC)/C=C\C=C(/C)C(=O)NC(=CC1=O)C2=O [Tanespimycin] + COCC[n+]1c2c(n(Cc3cnccn3)c1C)C(=O)c1ccccc1C2=O [YM155] (first compound 0.01 µM, partner dose 0.002 µM), the cell count was 21.2%. CN1CCN(c2ccc3nc(-c4c(N)c5c(F)cccc5[nH]c4=O)[nH]c3c2)CC1 [Dovitinib] + CC1(C)NC(=O)N(c2ccc([N+](=O)[O-])c(C(F)(F)F)c2)C1=O [nilutamide] (first compound 0.5 µM, partner dose 5 µM) was tested, and the cell count was 51.3%. With C[C@@H](Oc1cc(-c2cnn(C3CCNCC3)c2)cnc1N)c1c(Cl)ccc(F)c1Cl [Crizotinib] + O=c1cc(-c2cccc3c2Sc2ccccc2S3)oc(N2CCOCC2)c1 [KU55933] (first compound 1 µM, partner dose 5 µM) the cell count was 78.4%. In the case of CNC(=O)c1cc(Oc2ccc(NC(=O)Nc3ccc(Cl)c(C(F)(F)F)c3)cc2)ccn1 [sorafenib] + CS(=O)(=O)CCNCc1ccc(-c2ccc3ncnc(Nc4ccc(OCc5cccc(F)c5)c(Cl)c4)c3c2)o1 [lapatinib] (first compound 2 µM, partner dose 4 µM), the cell count is reported as 89.7%. Work on CN1CCN(c2ccc3nc(-c4c(N)c5c(F)cccc5[nH]c4=O)[nH]c3c2)CC1 [Dovitinib] + COc1ccc(Cl)c(Nc2nc3ccccc3nc2NS(=O)(=O)c2cccc(NC(=O)C(C)(C)N)c2)c1 [XL147] (first compound 0.5 µM, partner dose 4 µM) yielded a cell count of 58.8%. C=CCNC1=C2C[C@@H](C)C[C@H](OC)[C@H](O)[C@@H](C)/C=C(\C)[C@H](OC(N)=O)[C@@H](OC)/C=C\C=C(/C)C(=O)NC(=CC1=O)C2=O [Tanespimycin] + c1cc(-c2cnn3cc(-c4ccc(OCCN5CCCCC5)cc4)cnc23)ccn1 [Dorsomorphin] (first compound 0.01 µM, partner dose 2 µM) gave a cell count of 79.3%. Molecule C[C@@H](Oc1cc(-c2cnn(C3CCNCC3)c2)cnc1N)c1c(Cl)ccc(F)c1Cl [Crizotinib] + C[C@]1(c2nc3c(C(N)=O)cccc3[nH]2)CCCN1 [Veliparib] (first compound 1 µM, partner dose 7 µM) has a cell count of 62.8%. Molecule C[C@@H](Oc1cc(-c2cnn(C3CCNCC3)c2)cnc1N)c1c(Cl)ccc(F)c1Cl [Crizotinib] + O=C(Nc1cccc(Cl)c1)Nc1ncc(CCNc2ncnc3ccsc23)s1 [SNS314] (first compound 1 µM, partner dose 0.004 µM) has a cell count of 57.3%.
